Our source for the EC50 values is patent publication US11098051B2 (priority 2016, dated 2021).

The subject of assay [1] is influenza virus H3N2 (NA_VIR_H3N2). Nature of the assay: microbe, parasite or virus in culture. It is filed as cell-based. The conditions noted are these: unidentified influenza virus, H3N2, MDCK, read-out: NA_VIR_H3N2 EC50.
The subject of assay [2] is influenza virus H1N1 (NA_VIR_H1N1). Nature of the assay: microbe, parasite or virus in culture. It is filed as cell-based. The following applies: unidentified influenza virus, H1N1, MDCK, read-out: NA_VIR_H1N1 EC50.

Take `O=C1c2c(O)c(=O)cnn2C(C(c2ccccc2)c2ccccc2)C2OCCCN12` (single isomer, unassigned) [Example 19B, 12-benzhydryl-7-hydroxy-3,4,12,12a-tetrahydro-2H-pyridazino[1′,6′:4,5]pyrazino[2,1-b][1,3]oxazine-6,8-dione]: the EC50 in assay [1] came to 1.9 µM; in assay [2], 0.4 µM.
For the compound `O=C1c2c(O)c(=O)cnn2C(C(c2ccccc2)c2ccccc2)N2CCCCN12` (centres unmarked) [Example 1, 12-benzhydryl-4-hydroxy-7,8,9,10-tetrahydro-12H-dipyridazino[1,2-a:1′,6′-d][1,2,4]triazine-3,5-dione], the concentration giving a half-maximal response (EC50) in assay [1] turned out to be 1 µM; in assay [2], 0.22 µM.
For `O=C1c2c(O)c(=O)cnn2C(C(c2cccc(F)c2)c2cccc(F)c2)N2CCCCN12` (centres unmarked) [Example 2, 12-(bis(3-fluorophenyl)methyl)-4-hydroxy-7,8,9,10-tetrahydro-12H-dipyridazino[1,2-a:1′,6′-d][1,2,4]triazine-3,5-dione], in that order: 0.55 µM and 0.085 µM.
For `O=C1c2c(O)c(=O)cnn2C(C(c2ccc(Cl)cc2)c2ccc(Cl)cc2)N2CCCCN12` (centres unmarked) [Example 3, 12-(bis(4-chlorophenyl)methyl)-4-hydroxy-7,8,9,10-tetrahydro-12H-dipyridazino[1,2-a:1′,6′-d][1,2,4]triazine-3,5-dione], in that order: 1.5 µM and 0.66 µM.
For `O=C1c2c(O)c(=O)cnn2C(C(c2cccc(Cl)c2)c2cccc(Cl)c2)N2CCCCN12` (centres unmarked) [Example 4, 12-(bis(3-chlorophenyl)methyl)-4-hydroxy-7,8,9,10-tetrahydro-12H-dipyridazino[1,2-a:1′,6′-d][1,2,4]triazine-3,5-dione], the EC50 in assay [1] turned out to be 0.38 µM; in assay [2], 0.084 µM.
For `O=C1c2c(O)c(=O)cnn2C(C(c2ccc(F)cc2)c2ccc(F)cc2)N2CCCCN12` (centres unmarked) [Example 5, 12-(bis(4-fluorophenyl)methyl)-4-hydroxy-7,8,9,10-tetrahydro-12H-dipyridazino[1,2-a:1′,6′-d][1,2,4]triazine-3,5-dione], in that order: 0.79 µM and 0.19 µM.
For `O=C1c2c(O)c(=O)cnn2C(C(c2ccccc2)c2ccccc2)N2CCCCCN12` (centres unmarked) [Example 6, 13-benzhydryl-4-hydroxy-8,9,10,11-tetrahydro-7H,13H-pyridazino[1′,6′:4,5][1,2,4]triazino[1,2-a][1,2]diazepine-3,5-dione], in that order: 2.1 µM and 0.82 µM.
For `O=C1c2c(O)c(=O)cnn2C(C(c2cccc(F)c2)c2cccc(F)c2)N2CCCCCN12` (centres unmarked) [Example 7, 13-(bis(3-fluorophenyl)methyl)-4-hydroxy-8,9,10,11-tetrahydro-7H,13H-pyridazino[1′,6′:4,5][1,2,4]triazino[1,2-a][1,2]diazepine-3,5-dione], in that order: 1.6 µM and 0.59 µM.
With `O=C1c2c(O)c(=O)cnn2[C@H](C(c2cccc(F)c2)c2cccc(F)c2)N2CCCCN12` [Example 8, (R)-12-(bis(3-fluorophenyl)methyl)-4-hydroxy-7,8,9,10-tetrahydro-12H-dipyridazino[1,2-a:1′,6′-d][1,2,4]triazine-3,5-dione], in assay [1], the EC50 turned out to be 1.6 µM.
On to `O=C1c2c(O)c(=O)cnn2[C@@H](C(c2cccc(F)c2)c2cccc(F)c2)N2CCCCN12` [Example 9, (S)-12-(bis(3-fluorophenyl)methyl)-4-hydroxy-7,8,9,10-tetrahydro-12H-dipyridazino[1,2-a:1′,6′-d][1,2,4]triazine-3,5-dione], for which the half-maximal effective concentration (EC50) in assay [1] was 0.17 µM; in assay [2], 0.033 µM.
Regarding `O=C1c2c(O)c(=O)cnn2[C@@H]([C@H](c2ccccc2)c2cccc(F)c2)[C@H]2CCCN12` [Example 14, (9aR,10S)-10-((R)-(3-fluorophenyl)(phenyl)methyl)-4-hydroxy-8,9,9a,10-tetrahydro-7H-pyrrolo[1′,2′:4,5]pyrazino[1,2-b]pyridazine-3,5-dione], the EC50 in assay [1] was 0.45 µM; in assay [2], 0.084 µM.
For `O=C1c2c(O)c(=O)cnn2[C@H](C(c2cccc(F)c2)c2cccc(F)c2)[C@H]2CCCN12` [Example 15, (9aR,10R)-10-(bis(3-fluorophenyl)methyl)-4-hydroxy-8,9,9a,10-tetrahydro-7H-pyrrolo[1′,2′:4,5]pyrazino[1,2-b]pyridazine-3,5-dione], in that order: 30 µM and 17 µM.
For `O=C1c2c(O)c(=O)cnn2[C@@H](C(c2cccc(F)c2)c2cccc(F)c2)[C@H]2CCCN12` [Example 16, (9aR,10S)-10-(bis(3-fluorophenyl)methyl)-4-hydroxy-8,9,9a,10-tetrahydro-7H-pyrrolo[1′,2′:4,5]pyrazino[1,2-b]pyridazine-3,5-dione], in that order: 0.44 µM and 0.11 µM.
For `O=C1c2c(O)c(=O)cnn2[C@H]([C@@H](c2ccccc2)c2cccc(Cl)c2)[C@@H]2CCCN12` [Example 17, (9aS,10R)-10-((S)-(3-chlorophenyl)(phenyl)methyl)-4-hydroxy-8,9,9a,10-tetrahydro-7H-pyrrolo[1′,2′:4,5]pyrazino[1,2-b]pyridazine-3,5-dione], in that order: 1.5 µM and 0.25 µM.
As for `O=C1c2c(O)c(=O)cnn2[C@H](C(c2ccccc2)c2ccccc2)[C@H]2COCCN12` [Example 18, (10aS,11R)-11-benzhydryl-4-hydroxy-7,8,10a,11-tetrahydro-10H-pyridazino[1′,6′:4,5]pyrazino[2,1-c][1,4]oxazine-3,5-dione], the figures for the EC50 in assay [1] and in assay [2] were 21 µM and 4.4 µM, respectively.

By EC50 is commonly meant the concentration that produces a half-maximal response.
